The target in the assay is Human CAIX (carbonic anhydrase IX) (human, UniProt Q16790 part only). Nature of the assay: ELISA titration of biotinylated human CAIX on captured Z-ABD fusion. Background: In an ELISA, binding on a coated surface is turned into a signal by an enzyme label.

B1: Z06944 ABD fusion protein (designed binder, not shown: large carriers; small tags and cut ends)
chain: VDAKYAKEWQWAGVEIAELPNLTQQQRDAFIYKLWDDPSQSSELLSEAKKLNDSQAPK
notes: periplasmic sample
By Kd is commonly meant the free concentration of one partner at which half of the binding sites on the other are occupied at equilibrium, for simple one-to-one binding. Low readings indicate tighter binding, high ones weaker binding. Take B1: the Kd was 14 nM.

B2: Z06955 ABD fusion protein (designed binder, not shown: large carriers; small tags and cut ends)
chain: VDAKYAKEWQWAGVEIQELPNLTQQQRHAFIYKLWDDPSQSSELLSEAKKLNDSQAPK
notes: periplasmic sample
B2 showed a Kd of 7.7 nM.
